# According to paper PMC9911399, “Two distinct binding modes provide the RNA-binding protein RbFox with extraordinary sequence specificity”:
# Numbering of substitutions follows the chain as printed; changes in the protein carry UniProt numbers. The list shows a part of the results.
# T1: RBFOX1 RRM (Homo sapiens, UniProt Q9NWB1 109-208)
# T1 sequence: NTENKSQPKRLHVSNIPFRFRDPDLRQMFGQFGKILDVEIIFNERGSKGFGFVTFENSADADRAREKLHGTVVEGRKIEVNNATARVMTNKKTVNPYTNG
# B1: AAGAGUU (DNA:RNA)
# RNA: GGGAGACCGGAAUUCAGAUUGUCCAAGAGUUUUAAAUCCCGUCGUAGCCACCA
# DNA 1: CAATCTGAATTCCGGTCTCCC
# DNA 2: TGGTGGCTACGACGGGATT
# B2: GUAAGGC (DNA:RNA)
# RNA: B1 RNA with A25G, A26U, G27A, U30G, U31C
# DNA 1: CAATCTGAATTCCGGTCTCCC
# DNA 2: TGGTGGCTACGACGGGATT
# B3: AUGUCGC (DNA:RNA)
# RNA: B1 RNA with A26U, A28U, G29C, U30G, U31C
# DNA 1: CAATCTGAATTCCGGTCTCCC
# DNA 2: TGGTGGCTACGACGGGATT
# B4: CCGCAUC (DNA:RNA)
# RNA: B1 RNA with A25C, A26C, A28C, G29A, U31C
# DNA 1: CAATCTGAATTCCGGTCTCCC
# DNA 2: TGGTGGCTACGACGGGATT
# B5: GACGAAA (DNA:RNA)
# RNA: B1 RNA with A25G, G27C, A28G, G29A, U30A, U31A
# DNA 1: CAATCTGAATTCCGGTCTCCC
# DNA 2: TGGTGGCTACGACGGGATT
# B6: CGCAGGG (DNA:RNA)
# RNA: B1 RNA with A25C, A26G, G27C, U30G, U31G
# DNA 1: CAATCTGAATTCCGGTCTCCC
# DNA 2: TGGTGGCTACGACGGGATT
# B7: CCACCCG (DNA:RNA)
# RNA: GGGAGACCGGAAUUCAGAUUGUCCCCACCCGUUAAAUCCCGUCGUAGCCACCA
# DNA 1: CAATCTGAATTCCGGTCTCCC
# DNA 2: TGGTGGCTACGACGGGATT
# B8: UCAUUCA (DNA:RNA)
# RNA: B7 RNA with C25U, C28U, C29U, G31A
# DNA 1: CAATCTGAATTCCGGTCTCCC
# DNA 2: TGGTGGCTACGACGGGATT
# B9: CACCGGC (DNA:RNA)
# RNA: B1 RNA with A25C, G27C, A28C, U30G, U31C
# DNA 1: CAATCTGAATTCCGGTCTCCC
# DNA 2: TGGTGGCTACGACGGGATT
# B10: CCAUUUU (DNA:RNA)
# RNA: B7 RNA with C28U, C29U, C30U, G31U
# DNA 1: CAATCTGAATTCCGGTCTCCC
# DNA 2: TGGTGGCTACGACGGGATT
# B11: ACGGGUU (DNA:RNA)
# RNA: B1 RNA with A26C, A28G
# DNA 1: CAATCTGAATTCCGGTCTCCC
# DNA 2: TGGTGGCTACGACGGGATT
# B12: CUGGCUA (DNA:RNA)
# RNA: B1 RNA with A25C, A26U, A28G, G29C, U31A
# DNA 1: CAATCTGAATTCCGGTCTCCC
# DNA 2: TGGTGGCTACGACGGGATT
# B13: GAGCUUU (DNA:RNA)
# RNA: B1 RNA with A25G, A28C, G29U
# DNA 1: CAATCTGAATTCCGGTCTCCC
# DNA 2: TGGTGGCTACGACGGGATT
# B14: CCACGUU (DNA:RNA)
# RNA: B7 RNA with C29G, C30U, G31U
# DNA 1: CAATCTGAATTCCGGTCTCCC
# DNA 2: TGGTGGCTACGACGGGATT
# B15: CCCCGUU (DNA:RNA)
# RNA: B1 RNA with A25C, A26C, G27C, A28C
# DNA 1: CAATCTGAATTCCGGTCTCCC
# DNA 2: TGGTGGCTACGACGGGATT
# B16: GAUUCCG (DNA:RNA)
# RNA: B7 RNA with C25G, C26A, A27U, C28U
# DNA 1: CAATCTGAATTCCGGTCTCCC
# DNA 2: TGGTGGCTACGACGGGATT
# B17: AGAACUC (DNA:RNA)
# RNA: B1 RNA with A26G, G27A, G29C, U31C
# DNA 1: CAATCTGAATTCCGGTCTCCC
# DNA 2: TGGTGGCTACGACGGGATT
# B18: CAAUAUG (DNA:RNA)
# RNA: B7 RNA with C26A, C28U, C29A, C30U
# DNA 1: CAATCTGAATTCCGGTCTCCC
# DNA 2: TGGTGGCTACGACGGGATT
# B19: AUAAGCA (DNA:RNA)
# RNA: B1 RNA with A26U, G27A, U30C, U31A
# DNA 1: CAATCTGAATTCCGGTCTCCC
# DNA 2: TGGTGGCTACGACGGGATT
# B20: AGUUUAG (DNA:RNA)
# RNA: B1 RNA with A26G, G27U, A28U, G29U, U30A, U31G
# DNA 1: CAATCTGAATTCCGGTCTCCC
# DNA 2: TGGTGGCTACGACGGGATT
# B21: AAAGUUG (DNA:RNA)
# RNA: B1 RNA with G27A, A28G, G29U, U31G
# DNA 1: CAATCTGAATTCCGGTCTCCC
# DNA 2: TGGTGGCTACGACGGGATT
# B22: GAAAGAU (DNA:RNA)
# RNA: B1 RNA with A25G, G27A, U30A
# DNA 1: CAATCTGAATTCCGGTCTCCC
# DNA 2: TGGTGGCTACGACGGGATT
# B23: UUCCUAU (DNA:RNA)
# RNA: B1 RNA with A25U, A26U, G27C, A28C, G29U, U30A
# DNA 1: CAATCTGAATTCCGGTCTCCC
# DNA 2: TGGTGGCTACGACGGGATT
# B24: UGGCGCC (DNA:RNA)
# RNA: B1 RNA with A25U, A26G, A28C, U30C, U31C
# DNA 1: CAATCTGAATTCCGGTCTCCC
# DNA 2: TGGTGGCTACGACGGGATT
# B25: UUCGUCA (DNA:RNA)
# RNA: B7 RNA with C25U, C26U, A27C, C28G, C29U, G31A
# DNA 1: CAATCTGAATTCCGGTCTCCC
# DNA 2: TGGTGGCTACGACGGGATT
# B26: CUAGAUA (DNA:RNA)
# RNA: B7 RNA with C26U, C28G, C29A, C30U, G31A
# DNA 1: CAATCTGAATTCCGGTCTCCC
# DNA 2: TGGTGGCTACGACGGGATT
# B27: GCUCCAC (DNA:RNA)
# RNA: B7 RNA with C25G, A27U, C30A, G31C
# DNA 1: CAATCTGAATTCCGGTCTCCC
# DNA 2: TGGTGGCTACGACGGGATT
# B28: UGGUGUG (DNA:RNA)
# RNA: B1 RNA with A25U, A26G, A28U, U31G
# DNA 1: CAATCTGAATTCCGGTCTCCC
# DNA 2: TGGTGGCTACGACGGGATT
# B29: GCUGUAU (DNA:RNA)
# RNA: B1 RNA with A25G, A26C, G27U, A28G, G29U, U30A
# DNA 1: CAATCTGAATTCCGGTCTCCC
# DNA 2: TGGTGGCTACGACGGGATT
# B30: AUAGAAG (DNA:RNA)
# RNA: B7 RNA with C25A, C26U, C28G, C29A, C30A
# DNA 1: CAATCTGAATTCCGGTCTCCC
# DNA 2: TGGTGGCTACGACGGGATT
# B31: CAGCUGA (DNA:RNA)
# RNA: B1 RNA with A25C, A28C, G29U, U30G, U31A
# DNA 1: CAATCTGAATTCCGGTCTCCC
# DNA 2: TGGTGGCTACGACGGGATT
# Target: T1, RBFOX1 RRM
# Assay: EMSA; HiTS-Eq, 1 nM pool, 10 min; buffer printed only for the single-RNA assays: 10 mM Tris pH 7.5, 150 mM NaCl, 3.4 mM EDTA, 0.001% NP-40, 30 C
# Details: tags: His6 N-terminal (pET28a); label: 5' 32P
# Procedure, shortened: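 A pool of RNA with 7 randomized nucleotides, 5′-radiolabelled and with DNA-annealed flanks, was equilibrated at 1 nM for 10 min in 50 µL with purified RbFox RRM, wild type or mutant, across increasing protein concentrations. Free RNA was separated by 8% native PAGE, excised, reverse-transcribed, barcoded by PCR and sequenced. Relative association constants were obtained from read-count changes of each RNA species versus the control reaction and normalised to the cognate motif.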
row,Binder,binding signal
1,B1,0.0092 KA relative to UGCAUGU
2,B2,0.00453 KA relative to UGCAUGU
3,B3,0.0121 KA relative to UGCAUGU
4,B4,0.0121 KA relative to UGCAUGU
5,B5,0.00739 KA relative to UGCAUGU
6,B6,0.00445 KA relative to UGCAUGU
7,B7,0.00527 KA relative to UGCAUGU
8,B8,0.00233 KA relative to UGCAUGU
9,B9,0.00645 KA relative to UGCAUGU
10,B10,0.00144 KA relative to UGCAUGU
11,B11,0.0214 KA relative to UGCAUGU
12,B12,0.0161 KA relative to UGCAUGU
13,B13,0.0151 KA relative to UGCAUGU
14,B14,0.00237 KA relative to UGCAUGU
15,B15,0.00507 KA relative to UGCAUGU
16,B16,0.0143 KA relative to UGCAUGU

row,Binder,binding signal
1,B17,0.0032 KA relative to UGCAUGU
2,B18,0.00514 KA relative to UGCAUGU
3,B19,0.00563 KA relative to UGCAUGU
4,B20,0.00997 KA relative to UGCAUGU
5,B21,0.0113 KA relative to UGCAUGU
6,B22,0.0107 KA relative to UGCAUGU
7,B23,0.00415 KA relative to UGCAUGU
8,B24,0.019 KA relative to UGCAUGU
9,B25,0.00715 KA relative to UGCAUGU
10,B26,0.00632 KA relative to UGCAUGU
11,B27,0.00389 KA relative to UGCAUGU
12,B28,0.029 KA relative to UGCAUGU
13,B29,0.013 KA relative to UGCAUGU
14,B30,0.00586 KA relative to UGCAUGU
15,B31,0.01 KA relative to UGCAUGU
